In PubChem BioAssay AID651820 (National Center for Advancing Translational Sciences (NCATS), 2012):
The whole screen tested about 340,000 compounds, of which about 12,000 (3.5%) were called active. Inconclusive results, whose numbers are uncertain, are shown with a selection of clear calls. Calls come from the whole dose curve; as a rule, active = well fitted inhibition curve with a large enough effect; inconclusive = small, poorly fitted or top-dose-only effect, or another doubt; inactive = no such curve, though single readings can be large or run the other way. Potencies of inconclusive entries are left out as doubtful fits.

Test: qHTS Assay for Inhibitors of Hepatitis C Virus (HCV)
Conditions: Huh7.5.1 HCVcc-Cre (HCVcc is cell-culture hepatitis C virus) infection, luciferase reporter, 44 h; activity change, negative = inhibition: at 41.8 µM (top of the series) unless noted
How it was run: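 Luciferase read-out (15 sec integration) after a 15 min room-temperature substrate step quantifies HCVcc-Cre infection. Cells, 1,000 per well, had compound added 4 h post-plating, then virus at ~0.5 moi, and were cultured 44 h.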
% is set by controls: 0 for no effect and ±100 for the full control effect; potency is the fitted concentration of half-maximal effect; tags give direction and shape of the fitted curve.

Row | Compound | Potency | activity change, negative = inhibition
1 | CCOc1ccccc1-n1c(SCC(=O)N2CCCc3ccccc32)nnc1-c1cccnc1 | inconclusive [inhibitor, single point] | 
2 | CC1CCCC(C)N1C(=O)COC(=O)CCC(=O)c1cccs1 (stereo not drawn) |  | inactive: 3.29%
3 | Cc1cccc(Nc2nc(OCC#N)nc(N(C)C)n2)c1 |  | inactive: -5.5%
4 | Cc1ccc(C)c(S(=O)(=O)N2CCN(C(=O)c3ccc(N4CCCC4)c([N+](=O)[O-])c3)CC2)c1 |  | inactive: -0.224%
5 | COc1cc2c(cc1NCc1ccccn1)oc1ccccc12 | inconclusive [inhibitor, partial curve] | 
6 | COc1cccc(-n2c(SCC(=O)N3CCOCC3)nc3c([nH]c4ccccc43)c2=O)c1 | inconclusive [inhibitor, partial curve, poor fit] | 
7 | C=CCOc1c(Br)cc(CNc2ccc(NC(=O)C(C)C)c(OC)c2)cc1OCC |  | inactive: -5.54%
8 | COc1ccc(/C=N\NC(=O)c2ccccc2)cc1COc1ccc(F)cc1 | inconclusive [inhibitor, single point] | 
9 | Cc1ccc(NC(=O)C2c3ccccc3Oc3ccccc32)nc1 |  | inactive: 1.25%
10 | CCCCCCCOc1ccc(OC(=O)c2cccnc2)cc1 | inconclusive [inhibitor, partial curve, poor fit] | 
11 | COc1cc(CN2CCC(n3nccc3NC(=O)C3CC3)CC2)cc(OC)c1 |  | inactive: -7.49%
12 | COc1cccc(C(c2nnnn2Cc2ccco2)N2CCN(c3cccc(C)c3C)CC2)c1OC (stereo not drawn) | active: 11.2 µM | 
13 | CCOc1nc(-c2ccc(C)cc2)ccc1-c1noc(COC)n1 | active: 10 µM | 
14 | COc1ccc(NC(=O)CC(Cc2ccccc2)C(=O)O)cc1 (stereo not drawn) |  | inactive: -4.45%
15 | CC(CCN1CCC(n2nccc2NC(=O)c2ccccc2Cl)CC1)c1ccccc1 (stereo not drawn) |  | inactive: 1.29%
16 | COc1ccc(-n2c(=O)[nH]cc(C(=O)Nc3ccc4c(c3)OCCO4)c2=O)cc1 |  | inactive: 8.74%
17 | COc1ccc(-c2ccc(CCC(=O)O)o2)cc1 |  | inactive: -7.2%
18 | O=c1c2ccccc2nc(/C=C/c2ccc(O)cc2)n1-c1ccc(O)cc1 | inconclusive [inhibitor, single point] | 
19 | COC(=O)c1cc(OC)c(OC)cc1NC(=O)c1cccc(OC)c1OC | inconclusive [inhibitor, partial curve] | 
20 | CCCS(=O)(=O)N1CCN(C(=O)COc2ccc(-c3ccccc3)cc2)CC1 | inconclusive [inhibitor, partial curve] | 
21 | O=C(Nc1cc(Cl)ccc1O)C1CC(c2c(F)cccc2Cl)=NO1 (stereo not drawn) | inconclusive [inhibitor, single point] | 
22 | CCCCCCNC(=O)C(C#N)c1nc2ccccc2nc1N1CCCC1 (stereo not drawn) | inconclusive [inhibitor, full curve, poor fit] | 
23 | CCC(=O)Nc1ccc(C(=O)CN2C(=O)NC3(CCCCCC3)C2=O)cc1 | inconclusive [inhibitor, partial curve] | 
24 | CCc1nc2ccc(C(=O)N(C)CC(=O)Nc3ccccc3C(F)(F)F)cc2nc1CC | inconclusive [inhibitor, partial curve] | 
25 | CCOc1ccccc1C(C(=O)NC1CCCC1)N(Cc1ccco1)C(=O)CNC(=O)c1ccco1 (stereo not drawn) |  | inactive: 11.7%

Row | Compound | Potency | activity change, negative = inhibition
26 | Cc1ccc(-c2[nH]nc(N)c2N=Nc2ccccc2C)cc1 | inconclusive [inhibitor, single point] | 
27 | O=C(Nc1ccc(N2CCCCC2)cc1)c1cc(S(=O)(=O)N2CCOCC2)ccc1F | inconclusive [inhibitor, single point] | 
28 | Cc1nc(C(=O)NC2CCOCC2)sc1C1(C)CC(c2cccc([N+](=O)[O-])c2)=NO1 (stereo not drawn) | inconclusive [inhibitor, partial curve] | 
29 | Cc1sc2nc(SCC(=O)NCc3ccco3)n(Cc3ccccc3)c(=O)c2c1C | active: 2.24 µM | 
30 | CC(=O)c1c(C)[nH]c(C(=O)OCC(=O)c2c(N)n(CC(C)C)c(=O)n(C)c2=O)c1C | inconclusive [inhibitor, partial curve] | 
31 | COC(=O)N/N=C/c1cn(Cc2c(Cl)cccc2Cl)c2ccccc12 | inconclusive [inhibitor, single point] | 
32 | COCCNC(=O)c1ccc(C2SCC(=O)N2Cc2ccco2)cc1 (stereo not drawn) |  | inactive: -3.28%
33 | C/C(=N\Nc1nc(C(C)(C)C)cs1)c1ccccc1 | inconclusive [inhibitor, single point] | 
34 | CCOC(=O)c1c(C)[nH]c(C)c1C(=O)CSc1nc2ccccc2n1CC | inconclusive [inhibitor, single point] | 
35 | Nc1c(C(=O)NCc2ccc(F)cc2)c2nc3ccccc3nc2n1CCCN1CCOCC1 | inconclusive [inhibitor, single point] | 
36 | CC(=O)NCc1cc(-c2ccc(Cl)cc2)no1 | inconclusive [inhibitor, partial curve] | 
37 | Cc1ccc(S(=O)(=O)Nc2nc3ccccc3s2)cc1 |  | inactive: 11.3%
38 | Cc1ccccc1NC(=O)Cc1nc(COC(=O)c2ccc(C(F)(F)F)cc2)cs1 |  | inactive: -7.12%
39 | CCOc1cc(/C=N/Nc2nc(N3CCCC3)nc(N3CCCC3)n2)ccc1O | inconclusive [inhibitor, full curve, poor fit] | 
40 | Cc1ccc(OCC(=O)Nc2ccccc2C(=O)NC2CC2)cc1 |  | inactive: -22%
41 | CSc1nc(Sc2cccc(Cl)c2)c2ccccc2n1 |  | inactive: 12.8%
42 | COc1ccc(NC(=O)CN(C)C(=O)c2cn(-c3ccccc3)nc2-c2cccnc2)cc1 |  | inactive: -2.99%
43 | CCC[N+](C)(C)C(C)C(OC(C)=O)c1ccccc1 (stereo not drawn) | inconclusive [inhibitor, partial curve] | 
44 | CNC(=O)c1sc2nc(-c3ccc(OC)cc3)cn2c1C | inconclusive [inhibitor, single point] | 
45 | Cc1ncsc1CCC(=O)N1CCCC(C(=O)c2cccc(Cl)c2)C1 (stereo not drawn) | inconclusive [inhibitor, single point] | 
46 | CCCN1C(=O)c2ccc(C(=O)Nc3nccs3)cc2C1=O |  | inactive: 0.212%
47 | CCN(Cc1ccccc1)S(=O)(=O)c1cc2c3c(c1)CCN3C(=O)CC2 |  | inactive: 18.5%
48 | Cc1ccc(S(=O)(=O)N2CCOCC2)cc1C(=O)OCC(=O)NCCc1ccc(F)cc1 | inconclusive [inhibitor, single point] | 
49 | O=C(N[C@H](CO)Cc1ccccc1)c1ccco1 |  | inactive: -5.54%
50 | CCOc1ccccc1N1CCN(C(=O)c2c(Cl)cnn2C)CC1 |  | inactive: -20.7%

Row | Compound | Potency | activity change, negative = inhibition
51 | NC(=O)NC1NC(=O)NC1=O (stereo not drawn) |  | inactive: 12.6%
52 | COC(=O)Nc1nc(-c2ccccc2)c(C(=O)c2ccc(Cl)cc2)s1 | inconclusive [inhibitor, partial curve] | 
53 | Fc1ccccc1C(c1nnnn1Cc1ccc2c(c1)OCO2)N1CCN(Cc2ccccc2)CC1 (stereo not drawn) | inconclusive [inhibitor, single point] | 
54 | CSc1cc(N2CCOCC2)nc(-c2ccccc2Cl)n1 | inconclusive [inhibitor, partial curve] | 
55 | OC1c2cc(Cl)ccc2-c2c(Cl)cc(Cl)cc21 (stereo not drawn) | inconclusive [inhibitor, single point] | 
56 | O=c1c2c3c(sc2n2cnnc2n1Cc1ccccc1)CN(Cc1ccccc1)CC3 | active: 7.94 µM | 
57 | Nc1nc2c(ccc3ccccc32)s1 | inconclusive [inhibitor, single point] | 
58 | NC(=O)C1CC(=O)N(c2ccc(OCc3ccc(Cl)cc3Cl)cc2)C1 (stereo not drawn) |  | inactive: 22.4%
59 | CC1(C)CC(Nc2ccc(C(F)(F)F)cc2[N+](=O)[O-])CC(C)(C)N1 | inconclusive [inhibitor, full curve, poor fit] | 
60 | CNc1nc(-c2ccc3c(c2)CCN3C(=O)CC(C)(C)C)c(C)s1 |  | inactive: -15.7%
61 | O=C(NCc1ccc(OC(F)(F)F)cc1)C1CC(c2ccccc2C(F)(F)F)=NO1 (stereo not drawn) |  | inactive: -3.8% [at 8.37 µM]
62 | NC(=O)c1cc(S(=O)(=O)NCCCc2ccccc2)cs1 | inconclusive [inhibitor, single point] | 
63 | CC(C)n1nccc1NC(=O)COC(=O)c1ccc(NC(N)=O)cc1 | inconclusive [inhibitor, partial curve] | 
64 | CC(C)Cn1c(N)c(C(=O)COC(=O)c2cnccn2)c(=O)n(C)c1=O | inconclusive [inhibitor, single point] | 
65 | COc1ccc2oc(=O)c(-c3csc(Nc4cccc(O)c4)n3)cc2c1 | inconclusive [inhibitor, single point] | 
66 | COc1cc(C2C(C#N)=C(N)N(Nc3ccccc3)C3=C2C(=O)CC(C)(C)C3)ccc1OCc1cccc(F)c1 (stereo not drawn) | inconclusive [inhibitor, single point] | 
67 | Cc1nc(SCC(=O)NC2CCCCC2C)c(C#N)c(C)c1C (stereo not drawn) | inconclusive [inhibitor, single point] | 
68 | O=S(=O)(NC(=S)c1ccccc1)c1ccccc1 | inconclusive [inhibitor, single point] | 
69 | CCc1ccc(OCC(O)CN2CCN(c3ccccc3)CC2)cc1 (stereo not drawn) | inactive | 
70 | CC(=O)OCc1c(-c2ccccc2)c2cc([N+](=O)[O-])ccc2n1C | active: 12.6 µM | 
71 | COc1ccc(C(CNC(=O)CN2C(=O)NC(C)(c3ccc4ccccc4c3)C2=O)N2CCCC2)cc1 (stereo not drawn) | inconclusive [inhibitor, single point] | 
72 | O=C(OCc1cccc(C(F)(F)F)c1)c1cc([N+](=O)[O-])ccc1N1CCOCC1 | inconclusive [inhibitor, partial curve] | 
73 | COc1ccc(S(=O)(=O)N(C)c2ccc(C(=O)Nc3cccnc3)cc2)cc1 | inconclusive [inhibitor, single point] | 
